Data: ChEMBL document CHEMBL4888484, “Replenishing the malaria drug discovery pipeline: Screening and hit evaluation of the MMV Hit Generation Library 1 (HGL1) against asexual blood stage Plasmodium falciparum ,using a nano luciferase reporter read-out” (2022)
Values joined by “and” are separate entries in the source; they are usually repeats but may differ in a detail not shown here. Equal values may be shown once. Screen size: about 150,000 compounds; about 540 (0.36%) showed an effect of 50% or more. Some of the results follow.

Tested on: Plasmodium falciparum
Experiment: Primary screen in NF54 nanoGlo assay, in single point, at 2uM, 72h; a lower Z score goes with more inhibition
Type: functional, Erythrocyte
Details: timepoint 72 hour

Row | SMILES | % Inhibition | Z score | % Inhibition (2 µM) | Z score (2 µM)
1 | CCCN(CCC(=O)N1CCNCC1)C(=O)c1cccc(Cl)c1 | -13% | 1.72 | – | –
2 | CC1=NN(C(=O)Cc2ccc(Cl)c(O)c2)C(=O)C1 | 34% | -4.35 | – | –
3 | COc1cccc(OC)c1CC(=O)N1CC[C@H](O)C12CCCC2 | 12% | -1.43 | – | –
4 | CCn1nccc1-c1ncc(F)c(N2CCOCC2)n1 | -1% | 0.18 | – | –
5 | COCCc1nc(CNC(=O)[C@H](C)n2ccnc2C)no1 | -6% | 0.54 | – | –
6 | Cc1cc(C2CCC2)nc(-c2cccc(C(=O)NCCc3c[nH]cn3)c2)n1 | 0% | 0.04 | – | –
7 | Cc1ncn(C[C@H](O)c2ccccc2Br)c(=O)c1C | -11% | 1.69 | – | –
8 | O=S(=O)(c1cccnc1)N1CCN(Cc2cc3n(n2)CCCC3)CC1 | -11% | 1.38 | – | –
9 | c1ccc(COc2ccc3c(c2)CC[C@@]2(CCNC2)O3)cc1 | -6% | 0.86 | – | –
10 | O=C(NCCc1ccsc1)NC1CCCCCC1 | -12% | 1.4 | – | –
11 | Cc1ccc(CN(C(=O)NCc2cccs2)[C@H]2CCc3ccccc32)cc1 | 1% | -0.19 | – | –
12 | Cc1ccc(NC(=O)N2CC[C@@H]3COC(=O)N(Cc4ccccc4)[C@@H]3C2)cc1C | -20% | 2.67 | – | –
13 | COc1cccc(C[C@]2(C(=O)O)CCCN(c3cnc4ccccc4n3)C2)c1 | 14% | -1.9 | – | –
14 | CN1CCN(C(=O)c2ccc(NCc3ccc(F)cc3)c(S(=O)(=O)Nc3cccc(C(F)(F)F)c3)c2)CC1 | 1% | -0.17 | – | –
15 | FC(F)(F)c1ccnc(N2CCc3cncnc3C2)n1 | -1% | 0.2 | – | –
16 | CNC[C@H](C)CNS(=O)(=O)c1cc(C)c(C)s1 | -4% | 0.48 | – | –
17 | Cc1ccc(N2CC(CO)C2)nc1C#N | -8% | 1.39 | – | –
18 | CC(C)N(C(=O)c1cc(C2CCOCC2)nn1C)[C@H]1CCOC1 | -10% | 1.52 | – | –
19 | COc1cccc(CNCCc2cccc3ccccc23)c1OC[C@@H](O)CN1CCOCC1 | -8% | 0.76 | – | –
20 | CCc1ncc(C(=O)N2CCc3[nH]c(-c4ccc(F)cc4F)nc3C2)cn1 | -6% | 1.18 | – | –
21 | O[C@H]1[C@H](n2cc(-c3ccc(F)cc3)nn2)c2ccccc2C12CCNCC2 | -17% | 1.96 | – | –

Row | SMILES | % Inhibition | Z score | % Inhibition (2 µM) | Z score (2 µM)
22 | CCNS(=O)(=O)c1ccc2c(c1)N(Cc1ncc(C(C)C)o1)CC2 | -1% | 0.14 | – | –
23 | CCOC(=O)c1noc2ncnc(NCc3ccc4c(c3)OCO4)c12 | 4% | -0.78 | – | –
24 | C[C@@H](O)CN(C)C(=O)c1cnc(N(C)C)cn1 | -24% | 2.61 | – | –
25 | CCC1=NN(C(=O)c2ccc(OC)cc2)[C@@](O)(c2ccncc2)C1 | -8% | 1.03 | – | –
26 | COc1ccnc([C@H](C)NCCn2c(C)nc3ccccc32)c1 | -8% | 1.01 | – | –
27 | O=C(Cc1cccnc1)N1CCOCC1 | -10% | 1.1 | – | –
28 | CCCCn1c(C(=O)NCc2ccccc2)cc2cc(NC(=O)CCc3ccccc3)ccc21 | 1% | -0.08 | – | –
29 | Cn1cnc2cc(C(=O)N(CCC(F)(F)F)C3CCCCC3)cnc21 | 3% | -0.43 | – | –
30 | O=C(c1cc2n(n1)CCCC2)N1CCCC12CCC2 | -2% | 0.27 | – | –
31 | CCCN(CC(=O)N(Cc1ccc(F)cc1)Cc1ccc(C)s1)C(=O)Nc1ccccc1 | -7% | 0.73 | – | –
32 | CC[C@H]1C=CCN1S(=O)(=O)c1ccc2c(c1)NC(=O)CO2 | 2% | -0.34 | – | –
33 | COc1ccc(-c2cnn3c(C)cc(C)nc23)cc1S(=O)(=O)Nc1ccccc1F | -23% | 2.21 | – | –
34 | COC(=O)CC(C)(C)CC(=O)N1C(C)CN(C)CC1C (stereo not drawn) | -14% | 1.82 | – | –
35 | Nc1c(C(=O)Nc2ccccn2)nnc2ncnn12 | -46% | 5.41 | – | –
36 | CC1OCCN(CCOc2ccc(C(=O)O)cc2Cl)C1C (stereo not drawn) | -3% | 0.45 | – | –
37 | CCn1ccnc1[C@H]1OCCC[C@@H]1C(=O)N1CCc2c(F)ccc(F)c21 | 0% | 0.07 | – | –
38 | Cc1csc(-c2cc(C)nn(CC(=O)N(C3CCCCC3)[C@H]3CCS(=O)(=O)C3)c2=O)n1 | -18% | 1.99 | – | –
39 | CN1CC[C@@](Cc2ccccc2)(C(=O)NCCc2ccccn2)C1=O | -2% | 0.19 | – | –
40 | COCCCOc1ccc(C(=O)Nc2ccc(OC(F)F)cc2F)cn1 | -51% | 5.96 | – | –
41 | COc1ccc(C(=O)Nc2cc(-c3ccccc3F)nn2-c2ccccc2)cc1 | -12% | 1.63 | – | –
42 | O=S1(=O)CCC(NC2CCN(CC(F)(F)F)C2)c2cc(F)c(F)cc21 (stereo not drawn) | -9% | 1.2 | – | –

Row | SMILES | % Inhibition | Z score | % Inhibition (2 µM) | Z score (2 µM)
43 | Cc1nc(-c2ccccc2Cl)sc1CNC(=O)COc1ccc2c(c1)OCO2 | 4% | -0.71 | – | –
44 | CCc1nc(OCC(=O)NCc2ccccc2)c2c(C)c(C)oc2n1 | -4% | 0.51 | – | –
45 | CCN1CCN(C(=O)c2cc3cn(C4CCCC4)cc3s2)CC1 | -2% | 0.3 | – | –
46 | CCC1Oc2cc(C(C)NC(C)c3ccccn3)ccc2NC1=O (stereo not drawn) | -9% | 1.28 | – | –
47 | COc1ccc([C@H]2C(=O)N(C3CCCCCC3)CC(=O)N2Cc2ccccc2OC)cc1 | -9% | 1.19 | – | –
48 | O=C(NCC1(c2ccsc2)CCOCC1)c1ccno1 | 10% | -1.5 | – | –
49 | COc1cccc(CNC(=O)c2cn(Cc3cccc(F)c3)nc2OCc2cccc(F)c2)c1 | -15% | 1.73 | – | –
50 | Cc1n[nH]c(C)c1-c1ccc(C(=O)N2CCCCC2)cn1 | -9% | 1.53 | – | –
51 | Nc1nc2c(s1)CN(c1nccc(N3CCC[C@H](O)C3)n1)CC2 | -13% | 1.9 | – | –
52 | CCC1CCCC1NC(C)c1ccccn1 (stereo not drawn) | -3% | 0.28 | – | –
53 | O=C(C1CCC1)N1CCc2sc(S(=O)(=O)NCc3cccc(Cl)c3)cc2C1 | 5% | -0.89 | – | –
54 | CCNC(=O)C(C)(C)CN[C@@H](C)c1occc1Br | -18% | 2.77 | – | –
55 | O=C(Nc1ccc2c(c1)OCCO2)C1C2C(=O)N(c3ccccc3F)C[C@]23C=C[C@H]1O3 (stereo partly drawn) | – | – | -7% and -13% | 1.34 and 1.6
56 | CC(C)Cc1cc(CNC(=O)c2cn3c(n2)CNCC3)no1 | -25% | 2.53 | – | –
57 | O=C1CCC(=O)N1Oc1c(F)c(F)c(C(F)(F)F)c(F)c1F | 4% | -0.46 | – | –
58 | O=C1CC2(CCCCCC2)C(=O)N1c1ccccc1Cl | -15% | 1.4 | – | –
59 | Cc1nn(-c2ccccc2)c2sc(-c3noc([C@H]4CC(=O)N(c5ccccc5)C4)n3)cc12 | 18% | -2.05 | – | –
60 | C[C@H]1CN(C(=O)CC(C)(C)O)CCN1C(=O)CC(C)(C)O | 5% | -0.69 | – | –
61 | Cc1cccc2c1NC(=O)[C@H]2Cc1cccc(Oc2ccccc2)c1 | -15% | 1.3 | – | –
62 | CCNc1ncc(C(=O)N2CC3CC2(C(N)=O)C3)s1 | -9% | 1.67 | – | –
63 | O=S(=O)(c1ccc(F)c(F)c1)N(CCN1CCOCC1)[C@H]1CCCNC1 | 1% | -0.19 | – | –

Row | SMILES | % Inhibition | Z score | % Inhibition (2 µM) | Z score (2 µM)
64 | CN(C)c1cc(O[C@H]2CCN(C(=O)c3ccnn3C)C2)ncn1 | 3% | -0.33 | – | –
65 | Cc1nc(NC(=O)[C@H]2CCCN(C(=O)C(C)(C)C)C2)c(-c2ccccc2)s1 | -3% | 0.51 | – | –
66 | C[C@@H](C(N)=O)N1CCC2(CC1)CN(CCOc1ccccc1)C(=O)O2 | -15% | 1.48 | – | –
67 | Cn1nncc1C1(O)CN(c2ncc(Cl)s2)C1 | -7% | 1.23 | – | –
68 | NC(=O)[C@H]1CCCN(CCNC(=O)c2c[nH]nc2-c2ccccc2)C1 | -13% | 1.39 | – | –
69 | O=C(NC1CCN(Cc2ccccc2)CC1)[C@H]1CC(=O)N(c2ccc(F)cc2)C1 | -3% | 0.46 | – | –
70 | CCOc1ccccc1NC(=O)N1C[C@H](Oc2cccnc2)C[C@@H]1C(=O)N1CCOCC1 | 5% | -0.64 | – | –
71 | Cc1nsc(N(C)C[C@H]2COc3ccccc3O2)c1C#N | -15% | 1.47 | – | –
72 | COc1cccc(COC[C@@H](O)CN(C)c2ccc(C#N)cc2)c1 | -11% | 1.11 | – | –
73 | CC(C)N1CCC(CC(=O)N2CCn3nc(Cc4ccccc4)cc3C2)CC1 | -4% | 0.56 | – | –
74 | Cc1nc(N2CCCC2)nc(C)c1NC(=O)Nc1ccccc1Cl | -10% | 1.57 | – | –
75 | CCc1cccc(C)c1NC(=O)N(CC)CC(=O)N1CCCCCC1 | -12% | 1.1 | – | –
76 | COCc1cc(CN(C)C(=O)[C@H]2CCCN(Cc3ccco3)C2)n[nH]1 | -10% | 0.96 | – | –
77 | O=C(c1cc2n(n1)CCN(Cc1cccc(Cl)c1)C2=O)N1CCN(C/C=C/c2ccccc2)CC1 | -3% | 0.53 | – | –
78 | C[C@@H](CNS(C)(=O)=O)Oc1ccccc1Br | 4% | -0.33 | – | –
79 | N#Cc1ncn(Cc2ccc(C(=O)Nc3ccccc3)cc2)c1C#N | -14% | 2.56 | – | –
80 | COCC(=O)N(C1CCOCC1)C1CCN(C(=O)c2cc(C)ccc2C)CC1 | -13% | 1.6 | – | –
81 | CCOCCNC(=O)Nc1c(C)c(C2CC2)nn1-c1ccccc1 | -2% | 0.22 | – | –
82 | CN(Cc1cccc2cnccc12)C1CCN(C(=O)c2ccccc2)CC1 | -8% | 0.99 | – | –
83 | O=C(NCc1noc(-c2ccco2)n1)c1cnn[nH]1 | -8% | 1.56 | – | –
84 | c1ccc([C@@H]2CN(Cc3ccco3)Cc3ccccc3O2)cc1 | 7% | -0.89 | – | –
